Our source for the cytotoxicity call and growth inhibition call values is the antibiotic and cytotoxicity screens of Wong et al. (2023).

The test system of one experiment is HSkMC. Nature of the experiment: cytotoxicity call (relative viability < 0.9). The following applies: 10 µM.
The subject of a further experiment is HepG2. Nature of the experiment: cytotoxicity call (relative viability < 0.9). Particulars: 10 µM.
The test system of a further experiment is S. aureus RN4220. The experiment in a line: growth inhibition call (relative growth <= 0.2). The following applies: 50 µM.

The structures appear in SMILES notation. Some of the results follow.

For the molecule `CCCC#Cc1ccc2c(c1)O[C@H](CN(C)Cc1ccc3c(c1)OCO3)[C@@H](C)CN([C@@H](C)CO)S2(=O)=O`, the cytotoxicity call with HSkMC and with HepG2 was “inactive” in each case. For the same molecule, the growth inhibition call in the experiment with S. aureus RN4220 was “inactive”.
With `C[C@@H]1CCCCO[C@H](CN(C)CC2CC2)[C@H](C)CN([C@@H](C)CO)C(=O)c2cc(NC(=O)Nc3ccc4c(c3)OCO4)ccc2O1`, the cytotoxicity call with HSkMC and with HepG2 was “inactive” throughout. The growth inhibition call with S. aureus RN4220 was “inactive”.
Consider `C[C@@H]1CN([C@H](C)CO)C(=O)c2cc(NC(=O)CCN3CCOCC3)ccc2O[C@H]1CN(C)S(=O)(=O)c1cn(C)cn1`, for which the cytotoxicity call in the experiment with HSkMC and in the experiment with HepG2 was “inactive” each time. In addition, the growth inhibition call in the experiment on S. aureus RN4220 was “inactive”.
For the molecule `CC(C)CC#Cc1ccc2c(c1)O[C@@H](CN(C)C(=O)c1ccncc1)[C@@H](C)CN([C@H](C)CO)S2(=O)=O`, the cytotoxicity call in the experiment on HSkMC and in the experiment with HepG2 was “inactive” each time. Besides, the growth inhibition call in the experiment with S. aureus RN4220 was “inactive”.
Consider `C[C@@H]1CCCCO[C@H](CN(C)C(=O)c2ccccc2)[C@H](C)CN([C@@H](C)CO)C(=O)c2cc(NC(=O)Nc3ccc(F)cc3)ccc2O1`, for which the cytotoxicity call in the experiment with HSkMC and in the experiment on HepG2 was “inactive” each time. Also, the growth inhibition call with S. aureus RN4220 is “inactive”.
For `C[C@H]1CN([C@@H](C)CO)C(=O)c2cccc(NC(=O)c3nc4ccccc4s3)c2O[C@H]1CN(C)C(=O)Nc1ccc(F)cc1`, the cytotoxicity call with HSkMC and in the experiment on HepG2 was “inactive” each time. Further, in the experiment with S. aureus RN4220, the growth inhibition call is “inactive”.
On to `Cc1ccc(S(=O)(=O)N(C)C[C@H]2Oc3c(NS(C)(=O)=O)cccc3C(=O)N([C@H](C)CO)C[C@@H]2C)cc1`, for which the cytotoxicity call in the experiment on HSkMC and in the experiment with HepG2 was “inactive” in each case. Also, the growth inhibition call in the experiment with S. aureus RN4220 was “inactive”.
`C[C@@H]1CN([C@H](C)CO)C(=O)c2cccc(NC(=O)Nc3ccc(F)cc3)c2O[C@@H]1CN(C)Cc1ccc(Oc2ccccc2)cc1`: in the experiment on HSkMC, the cytotoxicity call is “inactive”. The cytotoxicity call in the experiment with HepG2 is “active”. The growth inhibition call in the experiment on S. aureus RN4220 was “inactive”.
As to `CC(C)NC(=O)N(C)C[C@@H]1Oc2c(NC(=O)C3CCCCC3)cccc2C(=O)N([C@@H](C)CO)C[C@@H]1C`, the cytotoxicity call in the experiment on HSkMC was “inactive”. Also, in the experiment with HepG2, the cytotoxicity call was “active”. Also, in the experiment with S. aureus RN4220, the growth inhibition call is “inactive”.
For `CN1CCC[C@H]1CO`, the cytotoxicity call in the experiment with HSkMC and in the experiment on HepG2 was “inactive” in each case. For the same molecule, in the experiment on S. aureus RN4220, the growth inhibition call was “inactive”.
For `COCC#Cc1ccc2c(c1)O[C@@H](CN(C)S(=O)(=O)c1cccc(OC)c1)[C@@H](C)CN([C@H](C)CO)S2(=O)=O`, the cytotoxicity call with HSkMC and with HepG2 was “inactive” in each case. The growth inhibition call with S. aureus RN4220 is “inactive”.
`C[C@@H]1CN([C@H](C)CO)C(=O)c2cccc(NC(=O)CCCCCC(=O)Nc3ccccc3N)c2O[C@@H]1CN(C)Cc1ccc(Oc2ccccc2)cc1`: the cytotoxicity call in the experiment on HSkMC and in the experiment with HepG2 was “inactive” throughout. Besides, in the experiment on S. aureus RN4220, the growth inhibition call is “inactive”.
For the molecule `CO[C@@H]1CN(C)C(=O)c2cc(NS(=O)(=O)CC(F)(F)F)ccc2OC[C@@H](C)N(Cc2nccs2)C[C@@H]1C`, the cytotoxicity call with HSkMC and with HepG2 was “inactive” throughout. In addition, the growth inhibition call in the experiment on S. aureus RN4220 was “inactive”.
Turning to `CN1CCN(C(=O)C[C@@H]2CC[C@H]3[C@H](COc4ccc(NC(=O)c5ccc(F)c(F)c5)cc4C(=O)N3C)O2)CC1`, the cytotoxicity call in the experiment with HSkMC and with HepG2 was “inactive” throughout. For the same molecule, the growth inhibition call with S. aureus RN4220 was “inactive”.
With `COc1ccc(CN(C)C[C@H]2Oc3ccc(NC(=O)Cn4cnnn4)cc3CC(=O)N([C@H](C)CO)C[C@H]2C)cc1`, the cytotoxicity call in the experiment on HSkMC and in the experiment on HepG2 was “inactive” in each case. The growth inhibition call in the experiment on S. aureus RN4220 is “inactive”.
For the molecule `C[C@@H]1CN([C@@H](C)CO)C(=O)c2cc(NC(=O)Nc3ccc(C(F)(F)F)cc3)ccc2O[C@@H](C)CCCCO[C@@H]1CN(C)C`, the cytotoxicity call with HSkMC and with HepG2 was “inactive” in each case. The growth inhibition call in the experiment with S. aureus RN4220 was “inactive”.
Turning to `COC(=O)CCc1ccc(OC)cc1O`, the cytotoxicity call with HSkMC and in the experiment on HepG2 was “inactive” throughout. Further, the growth inhibition call with S. aureus RN4220 is “inactive”.
As for `Cc1noc(C)c1NC(=O)N(C)C[C@H]1OCCCC[C@@H](C)Oc2ccc(NS(=O)(=O)c3ccc(Cl)cc3)cc2C(=O)N([C@@H](C)CO)C[C@@H]1C`, the cytotoxicity call in the experiment on HSkMC and with HepG2 was “inactive” throughout. For the same molecule, the growth inhibition call with S. aureus RN4220 was “inactive”.
As to `C[C@@H]1CCCCO[C@@H](CN(C)C(=O)Nc2cccc3ccccc23)[C@@H](C)CN([C@@H](C)CO)C(=O)c2cc(NS(=O)(=O)c3ccc(Cl)cc3)ccc2O1`, the cytotoxicity call in the experiment with HSkMC and with HepG2 was “inactive” throughout. For the same molecule, the growth inhibition call in the experiment on S. aureus RN4220 is “inactive”.
Regarding `Cc1noc(C)c1NC(=O)N(C)C[C@H]1OCCCC[C@H](C)Oc2ccc(NS(=O)(=O)c3ccc(Cl)cc3)cc2C(=O)N([C@@H](C)CO)C[C@H]1C`, the cytotoxicity call with HSkMC and with HepG2 was “inactive” each time. Besides, the growth inhibition call with S. aureus RN4220 was “inactive”.
`COc1cccc(S(=O)(=O)N[C@@H]2CC[C@@H](CCn3cc(-c4ccccc4OC)nn3)O[C@H]2CO)c1`: the cytotoxicity call with HSkMC and in the experiment with HepG2 was “inactive” throughout. In the experiment on S. aureus RN4220, the growth inhibition call was “inactive”.
Take `O=c1c(O)c(-c2ccc(O)cc2)oc2ccccc12`: the cytotoxicity call in the experiment with HSkMC is “inactive”. For the same molecule, the cytotoxicity call with HepG2 was “active”. In addition, in the experiment with S. aureus RN4220, the growth inhibition call was “inactive”.
With `CCCn1nc(C)c(CN)c1C`, the cytotoxicity call in the experiment on HSkMC and with HepG2 was “inactive” each time. In addition, the growth inhibition call with S. aureus RN4220 is “inactive”.
As for `O=C(N[C@@H](c1ccc(-c2ccccc2)cc1)c1cnccn1)C1CCN(Cc2ccc(Oc3ccccc3)cc2)CC1`, in the experiment on HSkMC (human skeletal muscle cells), the cytotoxicity call was “inactive”. Further, in the experiment with HepG2, the cytotoxicity call is “active”. Also, the growth inhibition call in the experiment on S. aureus RN4220 was “inactive”.
On to `C[C@@H]1CCCCO[C@H](CN(C)CC2CC2)[C@@H](C)CN([C@H](C)CO)C(=O)c2cc(NS(=O)(=O)c3ccc(Cl)cc3)ccc2O1`, for which the cytotoxicity call in the experiment with HSkMC and in the experiment with HepG2 was “inactive” each time. The growth inhibition call in the experiment on S. aureus RN4220 is “inactive”.
As to `C[C@@H]1CN([C@H](C)CO)C(=O)c2cc(NC(=O)NC3CCCCC3)ccc2O[C@@H](C)CCCCO[C@H]1CN(C)C(=O)Nc1ccccc1`, the cytotoxicity call in the experiment with HSkMC and with HepG2 was “inactive” each time. The growth inhibition call with S. aureus RN4220 is “inactive”.
